The source of these data is publication PMC4336329 (PLoS ONE, 2015).

Each structure is given as a SMILES string. Out of some 310,000 compounds screened, about 2,200 (0.71%) showed an effect of 50% or more. The effect is printed as a negative number. Some of the results follow.

For the assay, the target named is human ether-à-go-go-related gene (hERG) potassium channel (human, UniProt Q12809). Description: primary screen, population patch clamp on CHO cells stably expressing hERG.
Sequence of human ether-à-go-go-related gene (hERG) potassium channel (Q12809 whole entry, looked up): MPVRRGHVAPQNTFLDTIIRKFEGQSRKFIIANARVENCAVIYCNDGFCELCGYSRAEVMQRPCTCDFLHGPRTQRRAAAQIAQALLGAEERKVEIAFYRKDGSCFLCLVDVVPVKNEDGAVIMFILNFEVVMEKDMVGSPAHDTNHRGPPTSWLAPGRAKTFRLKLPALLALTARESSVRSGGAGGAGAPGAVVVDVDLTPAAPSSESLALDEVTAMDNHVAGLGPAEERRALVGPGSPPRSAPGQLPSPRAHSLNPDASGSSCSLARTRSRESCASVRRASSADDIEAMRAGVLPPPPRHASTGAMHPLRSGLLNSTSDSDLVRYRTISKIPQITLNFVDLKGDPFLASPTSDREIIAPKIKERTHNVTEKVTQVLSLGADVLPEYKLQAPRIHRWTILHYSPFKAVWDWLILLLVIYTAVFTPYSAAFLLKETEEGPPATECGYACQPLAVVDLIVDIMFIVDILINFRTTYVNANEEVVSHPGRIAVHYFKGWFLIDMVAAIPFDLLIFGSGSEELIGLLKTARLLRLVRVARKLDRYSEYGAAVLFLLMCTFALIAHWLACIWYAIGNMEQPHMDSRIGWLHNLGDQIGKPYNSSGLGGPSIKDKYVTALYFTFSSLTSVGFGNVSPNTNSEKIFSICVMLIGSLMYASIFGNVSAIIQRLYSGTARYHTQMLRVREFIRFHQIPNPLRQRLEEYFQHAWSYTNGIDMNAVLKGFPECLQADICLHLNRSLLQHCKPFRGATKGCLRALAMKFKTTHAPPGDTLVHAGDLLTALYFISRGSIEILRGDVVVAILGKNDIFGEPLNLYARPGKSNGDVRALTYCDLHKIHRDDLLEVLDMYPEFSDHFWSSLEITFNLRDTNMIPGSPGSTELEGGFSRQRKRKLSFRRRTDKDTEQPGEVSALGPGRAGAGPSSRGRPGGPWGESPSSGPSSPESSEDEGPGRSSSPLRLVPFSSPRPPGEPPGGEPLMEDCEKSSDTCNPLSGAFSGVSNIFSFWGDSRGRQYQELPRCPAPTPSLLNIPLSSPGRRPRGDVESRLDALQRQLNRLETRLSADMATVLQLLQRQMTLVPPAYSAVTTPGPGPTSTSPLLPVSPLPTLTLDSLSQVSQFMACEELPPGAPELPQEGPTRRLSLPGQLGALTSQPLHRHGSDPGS
For `Cn1cnnc1SCC(=O)Nc1ccc(N2CCCCC2)cc1`, the “hERG current change (%, negative = inhibition) at 1uM” value came out at 12.1%.
The figure for `c1ccc(CN(Cc2cccs2)C(c2cccs2)c2nnnn2C2CCCC2)cc1` (stereo not shown) is 5.97%; for `CCN(CC)c1ccc(CNCCc2ccccc2F)cc1.Cl` it is 5.56%.
As to `COc1ccccc1-n1c(O)c(/C=N/N2CCCCC2)c(=O)n(-c2ccccc2OC)c1=S`, the “hERG current change (%, negative = inhibition) at 1uM” value is 10.8%.
Consider `O=C1NCC(O)=C1C=NCCO`, for which the “hERG current change (%, negative = inhibition) at 1uM” value turned out to be 6.39%.
With `NC(=O)COc1ccccc1/C=C1/SC(=O)N(CC(=O)N2CCc3ccccc3C2)C1=O`, the “hERG current change (%, negative = inhibition) at 1uM” value is -3.54%.
Consider `CCN(CC)c1ccc(NC(=O)c2ccccc2F)cc1S(=O)(=O)Nc1ccccc1OC`, for which the “hERG current change (%, negative = inhibition) at 1uM” value stood at 10.3%.
Under `Cn1c(N)c(-c2ccccc2)c2ccc([N+](=O)[O-])cc2c1=O` stands 14.8%.
For the molecule `CCOc1ccc(S(=O)(=O)N2CCC(C(=O)NCCc3ccc(S(N)(=O)=O)cc3)CC2)cc1`, the “hERG current change (%, negative = inhibition) at 1uM” value is 7.53%.
Turning to `Cc1cc(C)c(C#N)c(=N)o1`, the “hERG current change (%, negative = inhibition) at 1uM” value was 8.04%.
Turning to `O=C(Nc1nc(-c2cccs2)c(C(=O)C(F)(F)F)s1)c1ccco1`, the “hERG current change (%, negative = inhibition) at 1uM” value is recorded as 22.5%.
Consider `Cc1cc(OCC(=O)NCCCn2ccnc2)c2c(C)c(C)c(=O)oc2c1`, for which the “hERG current change (%, negative = inhibition) at 1uM” value is recorded as -8.82%.
As for `CCOc1cc(C2NC(=S)NC(C)=C2C(=O)Nc2ccccc2)ccc1O` (stereo not shown), the “hERG current change (%, negative = inhibition) at 1uM” value stood at 12.3%.
For the molecule `COC(=O)C1CCN(C(=O)COC(=O)c2cccc(NS(=O)(=O)c3ccccc3)c2)CC1`, the “hERG current change (%, negative = inhibition) at 1uM” value is given as 9.32%.
As for `CCCc1[nH]nc2c1C(C1CC=CCC1)C(C#N)=C(N)O2` (stereo not shown), the “hERG current change (%, negative = inhibition) at 1uM” value was found to be 3.02%.
Turning to `COc1ccc2c(c1)c1nc3ccccc3nc1n2CCn1c(=O)oc2ccccc21`, the “hERG current change (%, negative = inhibition) at 1uM” value was found to be 13.6%.
Regarding `CCOC(=O)C1C(c2ccccc2)C(C(=O)OCC)C1c1ccccc1` (stereo not shown), the “hERG current change (%, negative = inhibition) at 1uM” value was 11.2%.
Take `Cc1ccc(S(=O)(=O)NC(=O)COc2ccc(Cl)cc2Cl)cc1`: the “hERG current change (%, negative = inhibition) at 1uM” value is on record as 19.1%.
For the molecule `COc1cc(C(=O)Nc2ccc3c(c2)CCCN3C(=O)c2ccco2)c([N+](=O)[O-])cc1OC`, the “hERG current change (%, negative = inhibition) at 1uM” value was -1.57%.
Take `O=C(N/N=C/c1ccccn1)c1cccs1`: the “hERG current change (%, negative = inhibition) at 1uM” value is 10.5%.
Under `CC(=O)NC(=S)Nc1ccccc1C(=O)Nc1ccccc1` stands 12.7%.
Under `CCc1ccc(C(=O)N2CCCN(C)CC2)s1` stands 20.6%.
Under `CC(C)CC1c2[nH]c3ccccc3c2CCN1CCCn1cccn1` (stereo not shown) stands -19.2%.
Turning to `Cc1ccc2ncnc(-c3ccccc3)c2c1`, the “hERG current change (%, negative = inhibition) at 1uM” value is on record as 13.7%.
For `Cc1ccccc1NC(=O)c1sc(Cl)nc1-c1ccccc1`, the “hERG current change (%, negative = inhibition) at 1uM” value is on record as -0.762%.
For the molecule `O=C(NC1CCCCCCC1)c1ccccc1O`, the “hERG current change (%, negative = inhibition) at 1uM” value is listed as 0.219%.
Under `CCOC(=O)Nc1ccc(NC(=O)OCC)cc1` stands 12.6%.
As to `Cc1ccc(C)c(NC(=O)C2(C)CC3c4ccccc4C2c2ccccc23)c1` (stereo not shown), the “hERG current change (%, negative = inhibition) at 1uM” value was determined as 5.14%.
Turning to `CC(C)(C)OC(=O)N1CCC[C@H]1C(=O)N/N=C/c1cccc2nccnc12`, the “hERG current change (%, negative = inhibition) at 1uM” value is -5.32%.
For the molecule `COc1ccc2nc(-c3ccccc3)cc(OC)c2c1`, the “hERG current change (%, negative = inhibition) at 1uM” value was 12.6%.
For the molecule `O=C(c1ccc2ccccc2c1)N1CCN(c2ccc([N+](=O)[O-])c(N3CCOCC3)c2)CC1`, the “hERG current change (%, negative = inhibition) at 1uM” value was -0.245%.
Under `O=C(NCc1ccccn1)c1ccc2ccccc2n1` stands 8.56%; under `CC(C)c1ccc(NC(=O)CSc2nnc(CN3CCOCC3)n2C)cc1`, 18.9%.
Turning to `NC(=S)N/N=C/c1c(O)ccc2ccccc12`, the “hERG current change (%, negative = inhibition) at 1uM” value came to 11%.
With `CCOc1ccc(N(CC(=O)N2CCCC2)S(=O)(=O)c2c(C)noc2C)cc1`, the “hERG current change (%, negative = inhibition) at 1uM” value came out at 10.2%.
The figure for `O=C(CSc1nc(=O)n(CCCN2CCOCC2)c2c1CCC2)Nc1cccc(F)c1` is -0.0072%; for `CN(CC(=O)Nc1ccc(F)cc1)C(=O)COC(=O)/C=C/c1ccc(OC(F)F)cc1` it is -10.2%; for `C=CCN(CC=C)S(=O)(=O)c1ccc(C(=O)Nc2sc3c(c2C(N)=O)CCCCC3)cc1` it is 12.7%.
As to `CSc1ccc(S(=O)(=O)NCC(=O)OCC(=O)N(Cc2ccccc2)C(C)C)cc1[N+](=O)[O-]`, the “hERG current change (%, negative = inhibition) at 1uM” value was determined as 0.595%.
Under `COc1ccc(S(=O)(=O)Nc2cc(C(=O)NCCC(C)C)ccc2N2CCOCC2)cc1` stands 7.3%.
The figure for `Cc1ccc(C)c(S(=O)(=O)N2CCN(C(=O)Nc3ccccc3)CC2)c1` is 6.95%; for `CCN1C(=O)[C@H]2[C@@H](c3ccc(-c4ccc(OC)cc4)c(OC)c3)N[C@@](C)(C(=O)OC)[C@H]2C1=O.O=C(O)C(F)(F)F` it is 11.2%; for `COc1cccc(Nc2ncc(C(=O)O)c3ccccc23)c1` it is 9.2%.
Regarding `Cc1nc2cc(F)ccc2n1C1CCN(C(=O)c2ccc(F)cc2F)CC1`, the “hERG current change (%, negative = inhibition) at 1uM” value is -4.37%.
For `CN1CCN(C(=O)c2cc(-c3ccccc3)on2)CC1`, the “hERG current change (%, negative = inhibition) at 1uM” value is 6.94%.
With `CC(/C=C/c1ccco1)=N\NC(=O)C(O)c1ccccc1` (stereo not shown), the “hERG current change (%, negative = inhibition) at 1uM” value was 5.19%.
For the molecule `Fc1ccc(-c2nc(-c3cnccn3)no2)c(Cl)c1`, the “hERG current change (%, negative = inhibition) at 1uM” value came out at 11%.
`Cc1cc(Cl)ccc1OC(C)C(=O)NNC(=O)C1CCCCC1C(=O)O` (stereo not shown): the “hERG current change (%, negative = inhibition) at 1uM” value is given as 7.09%.
Consider `O=C(Cc1ccc(F)cc1)OCC(=O)c1cc2ccccc2o1`, for which the “hERG current change (%, negative = inhibition) at 1uM” value stood at 4.28%.
As for `COc1ccccc1NS(=O)(=O)c1cccc(C(=O)NCc2ccncc2)c1`, the “hERG current change (%, negative = inhibition) at 1uM” value was 14.4%.
Take `CC(C)(C)c1ccc(-c2cnco2)cc1`: the “hERG current change (%, negative = inhibition) at 1uM” value is reported as -20.6%.
With `Cc1cc(C)c(C)c(OCC(=O)NCc2nc(-c3ccccc3)no2)c1`, the “hERG current change (%, negative = inhibition) at 1uM” value is listed as 9.52%.
For `Cc1ccc(C(=O)O/N=C/c2ccc(N(C)C)cc2)cc1`, the “hERG current change (%, negative = inhibition) at 1uM” value is reported as 14.7%.
With `CCOC(=O)CN1C(=O)C(=O)N(Cc2c(C)cc(C)cc2C)C1=O`, the “hERG current change (%, negative = inhibition) at 1uM” value was determined as 8.67%.
The figure for `COc1ccc(-c2nnc(SCCOc3cccc(C)c3)n2N)cc1` is 8.28%.
Under `COc1ccc2nc(NC(=O)Cc3ccc(OC)c(S(=O)(=O)N4CCOCC4)c3)sc2c1` stands 8.97%; under `Cc1nc2nc(COc3ccccc3)[nH]n2c(=O)c1Cc1ccccc1`, -1.2%.
The figure for `CCN(CC)c1ccc(C(=O)c2cnc(/N=C/N(C)C)s2)cc1` is -1.69%; for `CCOC(=O)N1CCC(N2Cc3cccc(C(=O)Nc4c(C)cccc4CC)c3C2=O)CC1` it is -15.3%.
With `NC(=O)c1ccc(NC(=O)Cc2ccc(S(=O)(=O)N3CCCCC3)cc2)cc1`, the “hERG current change (%, negative = inhibition) at 1uM” value was 17.4%.
Take `O=C(CSc1ncnc2sc(-c3ccccc3)cc12)NC1CCS(=O)(=O)C1` (stereo not shown): the “hERG current change (%, negative = inhibition) at 1uM” value is recorded as 4.77%.
For the molecule `CCOc1ccccc1N1CC(C(=O)Nc2ccccc2N2CCOCC2)CC1=O` (stereo not shown), the “hERG current change (%, negative = inhibition) at 1uM” value was determined as 15.3%.
The figure for `Cc1ccc(S(=O)(=O)N2CCOC2CNC(=O)C(=O)NCc2ccc(Cl)cc2)cc1` (stereo not shown) is 10.7%.
The figure for `Cc1ccc(SCCC(=O)Nc2cc(C)on2)cc1` is 12.6%; for `CCOC(=O)COc1ccc(S(=O)(=O)N2CCN(c3ccccc3)CC2)cc1` it is 5.53%.
As to `Cc1cc(C)n2nc(SCC(=O)N3CCC4(CC3)OCCO4)nc2n1`, the “hERG current change (%, negative = inhibition) at 1uM” value was 17.6%.
Under `COc1ccc(NC(=O)CCCn2c(=O)c3sccc3n(Cc3ccc(C)cc3C)c2=O)cc1` stands -4.43%; under `COC(=O)c1ccc(NC(=O)CSc2nnc(COc3c(C)cccc3C)o2)cc1`, 8.75%; under `Cc1ccc(-c2c(C(=O)O)c(C(=O)O)c3n2CSC3)cc1`, 10.1%.
For the molecule `O=C(COC(=O)c1cncc(Br)c1)NC1CCCCCC1`, the “hERG current change (%, negative = inhibition) at 1uM” value was -4.91%.
Under `COC(=O)c1c(NC(=O)c2ccco2)sc2c1CC(C)(C)NC2(C)C` stands -3.4%.
The figure for `CN(C(=O)COC(=O)c1ccc2c(=O)n3c(nc2c1)CCC3)C1CCS(=O)(=O)C1` (stereo not shown) is 8.18%.
Take `O=C(CSc1nnc(CNC(=O)c2c(F)cccc2Cl)o1)Nc1ccccc1`: the “hERG current change (%, negative = inhibition) at 1uM” value is reported as 6.11%.
As for `CC(C)Nc1ccc(-n2nc3ccccc3[n+]2[O-])cc1`, the “hERG current change (%, negative = inhibition) at 1uM” value worked out at 9.55%.
In the case of `N#Cc1c(C(F)(F)F)cc(Cc2ccccc2)nc1SCC(=O)NCC(=O)O`, the “hERG current change (%, negative = inhibition) at 1uM” value is 0.688%.
The figure for `COc1ccc(OC)c(NC(=O)CSc2nnc(-c3ccco3)n2-c2ccc(C(=O)O)cc2)c1` is -3.19%; for `COCCCNC(=O)C1CC(=O)OC1c1ccc(OC)c(OC)c1` (stereo not shown) it is 1.68%.
With `CC1(c2ccccc2Cl)NC(=O)N(CC(=O)Nc2cccnc2Cl)C1=O` (stereo not shown), the “hERG current change (%, negative = inhibition) at 1uM” value is listed as 4.25%.
The figure for `C/C(Cc1ccccc1)=N\NC(=O)c1ccc(F)cc1` is 16.2%; for `COc1ccc(C(C)=O)cc1CSc1nnc2c(Cl)cc(Cl)cn12` it is 6.65%; for `CN(C(=O)c1ccccc1)C1(C)CCS(=O)(=O)C1` (stereo not shown) it is 1.51%.
`Cc1c(O)ccc(/C(Cc2ccc3ccccc3n2)=N\N)c1O`: the “hERG current change (%, negative = inhibition) at 1uM” value turned out to be 11.3%.
As to `CC(C)NS(=O)(=O)c1ccc2c3c(cccc13)CC2`, the “hERG current change (%, negative = inhibition) at 1uM” value came out at 11.9%.
Regarding `CCN(CC)C(=O)CN1CCN(c2ncccn2)CC1.O=C(O)C(=O)O`, the “hERG current change (%, negative = inhibition) at 1uM” value is given as 0.916%.
With `COc1ccc(NC(=O)C2CCCN2C(=O)Oc2ccccc2)cc1` (stereo not shown), the “hERG current change (%, negative = inhibition) at 1uM” value came to 12.8%.
Under `c1ccc2c(CN3CCCCC3)c[nH]c2c1` stands 6.25%; under `CC(C)(C)c1nnc(NC(=O)COc2ccc3c(c2)OCO3)s1`, 4.25%.
`COc1ccc(C2=NOC(CNC(N)=S)C2)cc1` (stereo not shown): the “hERG current change (%, negative = inhibition) at 1uM” value is reported as 3.37%.
